# Measurements taken from the supplement of paper PMC3334620.
# In all, about 33,000 sequences were measured (“E-score (-0.5 to 0.5)”: median about -0.032, highest 2% from about 0.36 on). The list shows a part of the results.
# Target: T1, Sko1 (UniProt Q02100)
# T1 sequence: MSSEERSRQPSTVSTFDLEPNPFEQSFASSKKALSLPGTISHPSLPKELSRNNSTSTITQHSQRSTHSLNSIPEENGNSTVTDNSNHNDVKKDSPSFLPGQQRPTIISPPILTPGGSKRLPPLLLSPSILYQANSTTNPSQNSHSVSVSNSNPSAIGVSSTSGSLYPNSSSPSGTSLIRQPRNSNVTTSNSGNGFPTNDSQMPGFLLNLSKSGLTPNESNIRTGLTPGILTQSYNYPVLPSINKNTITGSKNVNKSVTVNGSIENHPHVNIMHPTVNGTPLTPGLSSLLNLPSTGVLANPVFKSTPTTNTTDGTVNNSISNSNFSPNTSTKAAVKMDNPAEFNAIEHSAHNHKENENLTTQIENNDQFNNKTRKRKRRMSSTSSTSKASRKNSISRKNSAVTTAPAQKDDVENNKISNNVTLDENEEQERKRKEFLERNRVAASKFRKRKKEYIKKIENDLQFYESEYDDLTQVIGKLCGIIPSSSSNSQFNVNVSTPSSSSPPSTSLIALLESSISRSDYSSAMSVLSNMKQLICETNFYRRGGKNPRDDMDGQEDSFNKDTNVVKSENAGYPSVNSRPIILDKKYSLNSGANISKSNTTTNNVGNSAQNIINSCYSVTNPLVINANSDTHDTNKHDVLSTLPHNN
# Assay: PBM E-score (8-mer binding enrichment) (E-score (-0.5 to 0.5)); higher = stronger / more preferred TF binding; most listed sequences are background and not binding sites
# Conditions: protein concentration: 200 nM; construct: GST-full length
# Description: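 Universal 'all 10-mer' protein binding microarrays (Agilent AMADID 015681) probed with GST-tagged S. cerevisiae TFs (full-length or DBD) made by in vitro transcription/translation (PURExpress), about 100-200 nM. Bound TF was detected with fluorescent anti-GST. Each ungapped 8-mer (which stands for itself and its reverse complement) is scored by the PBM enrichment score (E-score), a modified Wilcoxon-Mann-Whitney statistic from -0.5 to +0.5, computed with the Universal PBM Analysis Suite. Scale: above 0.35 generally sequence-specific binding.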
row,Sequence,PBM E-score
1,GGCCTAAA,-0.155
2,ACCAGTGG,-0.0428
3,ACAGACAG,-0.0629
4,GACGTCGA,0.364
5,ACTGTCGA,-0.0921
6,GGCGGGGA,-0.0687
7,CCGATCTA,-0.121
8,ACAGTGGT,-0.128
9,AACAGTGT,0.0669
10,AGCCACAT,0.169
11,CGCGACAA,0.158
12,CCCATTTA,-0.0301
13,CACAAGCC,-0.0983
14,CGACGATC,0.0457
15,ACGTCACT,0.489
16,CTCACTTC,-0.201
17,GATTTGGC,-0.137
18,AGCATAGA,-0.0737
19,ATGCCCGA,-0.109
20,TAATATTA,0.362
21,CCTCTCGC,-0.271
22,ATCGCAAT,0.0775
23,CGGCGCAA,-0.0689
24,CCACATAA,0.154
25,CTTCTTTC,-0.165

row,Sequence,PBM E-score
1,GCGCGAGA,-0.0329
2,CGTCAAGA,0.325
3,TAGACCTA,-0.00634
4,GCTTAAGC,0.124
5,CTCGGATA,-0.0118
6,CGTAAACC,0.292
7,ATGGGGTC,-0.181
8,TGAGGTAA,0.324
9,AAAGGAGG,-0.23
10,CAATAATC,0.0749
11,CGAGGGCC,-0.264
12,ATGATCAT,0.201
13,GATACACC,0.192
14,AGGCCGGA,-0.308
15,CATAGACG,0.167
16,ACGAACGT,0.245
17,GAAGTCTC,-0.0994
18,CGGAAACA,-0.0815
19,CATGTTAA,0.117
20,ATCCCGAG,0.0113
21,ATTAGGCC,-0.0836
22,GAGGAATA,0.0676
23,AATCATCG,0.0491
24,GGGCGACA,-0.235
25,GCCGCGAC,-0.177

row,Sequence,PBM E-score
1,TAGAATGA,0.172
2,ACTTTTTG,0.0874
3,GTACTACA,0.188
4,ACCAGTCC,-0.42
5,AGCTACTA,0.0216
6,CACTTGAC,0.186
7,GACTTATC,-0.156
8,CGGTCCAC,-0.32
9,GGGCACGA,-0.186
10,AAGAGCCG,-0.304
11,GCCCCGGC,-0.424
12,AGAGACGC,-0.126
13,CGGTTGAA,-0.0841
14,GCTATGCA,0.0613
15,AGTGGAGG,-0.217
16,ATCGGAGG,-0.185
17,ACATGCGG,0.0654
18,ATTCTCAC,0.0465
19,GTACAGGA,0.0369
20,ACGCCGTG,-0.0333
21,ACTGTAAT,0.104
22,ATCTACTC,0.00745
23,CTAGAGCA,-0.171
24,AGATATGG,-0.016
25,CCTGTAAA,-0.207

row,Sequence,PBM E-score
1,CCCTGAAA,0.0337
2,AAAGCCAA,-0.113
3,AGTTTCCC,-0.197
4,CCACGAGC,-0.212
5,ACTTTTAA,0.115
6,CGCGAAGA,0.00689
7,GATCGGGC,-0.176
8,ACCGCGCT,-0.174
9,ACTGCGGA,-0.0678
10,CCGACTGC,-0.235
11,ACTCAGCT,-0.174
12,ATCTGCAA,-0.0812
13,AGGAACGA,-0.0982
14,ACTCTCGC,-0.184
15,CAGACTTC,-0.193
16,AGCACGCC,-0.134
17,AGGAGGTA,-0.144
18,GCAGACAA,-0.141
19,ATTTTAGA,-0.0457
20,GGTCCAAA,-0.101
21,AGACCCAC,-0.0858
22,ATGGGTTA,0.0849
23,GGCCCGAA,-0.263
24,AGAGAGAT,0.0264
25,CCGCTTCA,-0.236

row,Sequence,PBM E-score
1,ATGTACAT,0.32
2,AGCCGTCA,0.0793
3,CGTACCAG,0.0706
4,TTGGACAA,-0.0461
5,AACCATGG,-0.0761
6,AGCCACGG,-0.346
7,ATGGTAAT,0.242
8,AGATCGTA,0.0575
9,CAGTGCAG,-0.254
10,ACGCACGC,0.316
11,CGTAGCCA,0.15
12,CTAGGTGA,-0.125
13,GCGCTTGA,-0.0697
14,ACTGAAGG,-0.0475
15,AAACCTGA,0.0301
16,ATATTACA,0.175
17,AGTCTAGC,-0.282
18,GACATCCC,0.0135
19,AATATAAA,0.269
20,GAATCGTC,0.122
21,CTTGGTAA,0.0209
22,CGGTTGGC,-0.0926
23,GGCAGAAC,-0.0991
24,ATTCGAGG,-0.111
25,CTCAACAA,0.23

row,Sequence,PBM E-score
1,ATCTTTGG,-0.00869
2,GATCCTAA,-0.06
3,CCAGAGGG,-0.212
4,AAGTATTA,0.131
5,GACCAAAC,-0.0367
6,TAGTCCGA,-0.165
7,GCTCAGCA,0.0286
8,ACACCCGC,-0.117
9,ACCCCTAC,-0.0736
10,AATAGGTG,-0.0428
11,CTTACACC,-0.25
12,AGCCCTAT,-0.331
13,AAAAACAT,0.145
14,CTTGGACA,-0.0636
15,CGTAGAAA,0.282
16,GAAACTTA,0.262
17,TGAACCCA,-0.0415
18,CAGTCGCC,-0.132
19,AGTTTTTA,0.225
20,AGGAAGCA,-0.186
21,AGATTCAT,-0.109
22,CAAGTGGA,-0.21
23,CCTGAGGA,-0.147
24,AGCCGGAT,-0.296
25,AATCTGGT,-0.147

row,Sequence,PBM E-score
1,CACAACAA,0.0758
2,CGTACTAC,0.228
3,AAACTTTA,0.16
4,ATAGGCTG,-0.0621
5,AGTCAGGG,-0.256
6,AGCCTTGC,-0.324
7,ACTATGTC,0.2
8,GCTTCGAC,-0.204
9,ACGTAGGG,0.425
10,GAGGATCA,-0.062
11,CGAGCAGC,-0.039
12,AGATGGAA,-0.109
13,AATTTAGT,0.097
14,TGCGGCCA,-0.158
15,GTGGTTGA,0.0985
16,CCAAATGG,-0.0542
17,AAGGCGTA,0.128
18,CGGTTCGC,-0.131
19,CCTAGGTA,-0.054
20,AGGCTCAG,-0.0655
21,GGCGGAAA,-0.0247
22,ATACCCCC,-0.264
